Test results taken from PubChem BioAssay AID588342 (National Center for Advancing Translational Sciences (NCATS), 2011).
The campaign covered roughly 360,000 compounds. About 25,000 (6.9%) were called active. This list was built around the results that the source calls inconclusive (neither active nor inactive); the mix of calls is not that of the screen. Calls come from the whole dose curve; as a rule, active = well fitted inhibition curve with a large enough effect; inconclusive = small, poorly fitted or top-dose-only effect; inactive = flat fitted curve, though single readings scatter. Where the call is inconclusive, the potency comes from a doubtful curve fit.

target: Luciferin 4-monooxygenase (Photinus pyralis) (UniProt P08659); experiment: qHTS profiling assay for firefly luciferase inhibitor/activator using purifed enzyme and Km concentrations of substrates (counterscreen for miR-21 project); conditions: purified FLuc, luminescence inhibition; series mostly up to 57.5 µM; activity change, negative = inhibition: at the top concentration; note: nearly all actives have a fitted effect of over 55% in size;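 for activity change, negative = inhibition: plate controls were vehicle for no effect and reference inhibitor for full effect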
Sequence of UniProt P08659 (P08659 whole entry, looked up): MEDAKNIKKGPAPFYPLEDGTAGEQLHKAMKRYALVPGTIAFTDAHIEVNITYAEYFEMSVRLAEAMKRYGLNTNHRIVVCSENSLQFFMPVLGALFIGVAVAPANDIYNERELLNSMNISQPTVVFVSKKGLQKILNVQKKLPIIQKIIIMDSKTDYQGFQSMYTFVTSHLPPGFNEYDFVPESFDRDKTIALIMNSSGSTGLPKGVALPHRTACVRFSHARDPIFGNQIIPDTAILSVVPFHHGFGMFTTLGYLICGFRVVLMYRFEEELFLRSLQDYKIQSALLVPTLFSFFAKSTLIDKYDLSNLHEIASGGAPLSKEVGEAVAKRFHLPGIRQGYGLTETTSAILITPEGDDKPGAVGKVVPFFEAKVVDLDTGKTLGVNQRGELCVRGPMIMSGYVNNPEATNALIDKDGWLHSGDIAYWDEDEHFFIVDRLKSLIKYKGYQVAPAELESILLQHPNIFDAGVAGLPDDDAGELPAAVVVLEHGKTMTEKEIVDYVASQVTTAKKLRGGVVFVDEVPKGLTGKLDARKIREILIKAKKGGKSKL
Summary of the method: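 Purified P. pyralis luciferase (10nM final) with 10uM D-luciferin and 10uM ATP (Km levels) in 50mM Tris acetate pH 7.5, 10mM Mg acetate, 0.01% Tween-20, 0.05% BSA; qHTS 6-point titration, ~60 µM downward; luminescence read.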
Potency is the fitted concentration of half-maximal effect; tags give direction and shape of the fitted curve.

| Compound | Potency | activity change, negative = inhibition |
| --- | --- | --- |
| CCCC(=O)Nc1ccc(-c2csc(-c3cccnc3)n2)cc1 | inconclusive: 10.7 µM [inhibitor, partial curve] |  |
| Cc1ccc(-c2nn(-c3ccccc3)cc2C(=O)NCC2CCCO2)cc1 (stereo not given) | active: 13.5 µM |  |
| c1csc(-c2ccc3ccccc3n2)c1 | active: 7.57 µM |  |
| CCCC(=O)c1cc(F)c(N2CCOCC2)cc1C |  | inactive: -12% |
| CC1CCN(C(=O)CSc2nc3c(c(=O)n2C)SC(C)C3)CC1 (stereo not given) |  | inactive: 0.366% |
| CCOC(=O)c1ccc(Nc2nc3ccccc3nc2NS(=O)(=O)c2ccc(Cl)cc2)cc1 | inconclusive: 26.9 µM [inhibitor, single point] |  |
| COc1ccc(N2CCN(S(=O)(=O)CCNC(=O)C(c3ccccc3)c3ccccc3)CC2)cc1 |  | inactive: 7.73% |
| COc1cc(C2Oc3ccccc3C=C2[N+](=O)[O-])cc(OC)c1OC (stereo not given) | inconclusive: 26.9 µM [inhibitor, partial curve, poor fit] |  |
| COc1ccc(C(=O)/C=C/c2ccc(OC3CSC3)cc2)cc1OC | inconclusive: 19 µM [inhibitor, single point] |  |
| O=C(c1cc(COc2ccc(F)cc2Cl)on1)N1CCN(C2CCCCC2)C(=O)C1 | inconclusive: 37.9 µM [inhibitor, partial curve, poor fit] |  |
| O=C(Cn1nnc2ccccc21)c1ccc(Cl)cc1 | inconclusive: 26.9 µM [inhibitor, single point] |  |
| Cc1cc2nc(-c3ccc4c(c3)CCC4)ccn2n1 | inconclusive: 23.9 µM [inhibitor, partial curve] |  |
| Cc1ccc(CSCC(=O)N2CCN(c3ccccc3)CC2)cc1 |  | inactive: -1.66% |
| Nc1ccc(-c2cc(N)n(-c3ccccc3)n2)cc1 | inconclusive: 23.9 µM [inhibitor, single point] |  |
| O=C(Cn1cc(C(F)(F)F)cc(Cl)c1=O)Nc1ccc(N2CCOCC2)cc1 |  | inactive: -5.09% |
| Cn1c(-c2ccccc2)cnc1NCc1ccc(F)cc1 | inconclusive: 19 µM [inhibitor, partial curve, poor fit] |  |
| COC(=O)C1=C(C)N(C)C(=O)/C1=C\c1ccco1 | inconclusive: 26.9 µM [inhibitor, partial curve, poor fit] |  |
| COc1ccc(NC(=O)c2cc3c(=O)n(Cc4ccco4)ccc3nc2C)cc1 |  | inactive: -5.73% |
| COc1ccc(Nc2ncnc3sc(-c4ccccc4)cc23)c(OC)c1 | active: 19 µM |  |
| CCCCSc1nc2ccccc2[nH]1 | active: 16.9 µM |  |
| COc1cc(-c2cc(C(=O)Nc3ccc(S(=O)(=O)Nc4ncccn4)cc3)c3ccccc3n2)cc(OC)c1OC | inconclusive: 42.6 µM [inhibitor, partial curve, poor fit] |  |
| COc1ccc(NC(=O)c2noc3c2CCCC3)cc1Cl | inconclusive: 5.36 µM [inhibitor, partial curve] |  |
| Cc1nc(C)c(-c2csc(Nc3ncccc3C)n2)s1 | active: 6.75 µM |  |
| S=C(Nc1ccc(Br)cc1)Nc1ccc2c(c1)OCCO2 | active: 12 µM |  |
| C/C(=N\NC(=O)CNc1ccc(F)cc1)c1cc2ccccc2o1 | inconclusive: 37.9 µM [inhibitor, partial curve, poor fit] |  |

| Compound | Potency | activity change, negative = inhibition |
| --- | --- | --- |
| O=C(CCC(=O)N(CC(=O)NC1CCCCC1)Cc1cccs1)Nc1nccs1 |  | inactive: -0.796% |
| Cc1ccnc(NC(=O)c2cccc(NC(=O)c3ccccc3C)c2)c1 | inconclusive: 19 µM [inhibitor, partial curve, poor fit] |  |
| CCCOC1(C(F)(F)F)NC(=O)N(c2ccc(Cl)cc2)C1=O (stereo not given) |  | inactive: -9.01% |
| CC(C)(C)c1ccc(OCC(=O)N2CCC(c3nc4ccccc4s3)CC2)cc1 | inconclusive: 12 µM [inhibitor, partial curve] |  |
| Cc1nc2c(C(=O)NCc3ccccc3)c[nH]n2c(=O)c1Cc1ccccc1Cl | inconclusive: 16.9 µM [inhibitor, partial curve, poor fit] |  |
| Cc1sc2ncn(CC(=O)N(C)c3ccc(Br)cc3)c(=O)c2c1S(=O)(=O)N1CCC(C)CC1 |  | inactive: -10.7% |
| Cc1sc2nc(C3CC3)nc(SCC(=O)N3CCCc4ccccc43)c2c1C |  | inactive: 3.37% |
| CCOC(=O)c1c(NC(=O)CN2CCCc3ccccc32)sc(C)c1C | inconclusive: 37.9 µM [inhibitor, partial curve, poor fit] |  |
| Cn1c(C(C)(O)C(O)c2ccccc2)nc2ccccc21 (stereo not given) |  | inactive: 0.769% |
| CC(C)(C)OC(=O)NCCCCCc1cn(CC(=O)NCCCCCCCCCCC(=O)N2CCN(C(=O)OC(C)(C)C)CC2)nn1 | inconclusive: 26.9 µM [inhibitor, single point] |  |
| CC(=O)N1CCc2cc(S(=O)(=O)CCC(=O)N3CCN(c4cccc(C)c4C)CC3)ccc21 |  | inactive: 4.24% |
| Cn1nc(-c2ccc(C(=O)NCCO)cc2)c2ccccc2c1=O |  | inactive: -3.52% |
| O=C(Nc1ccc2c(c1)OCCO2)c1cnccn1 | active: 12 µM |  |
| O=C(Nc1ccc(N2CCN(Cc3ccccc3F)CC2)cc1)c1ccc([N+](=O)[O-])o1 |  | inactive: -1.63% |
| Cc1ccc([N+](=O)[O-])c2c1C(N1CC(C)OC(C)C1)C(C)(C)O2 (stereo not given) |  | inactive: -1.59% |
| Cc1ccc(OCC(=O)Nc2nnc(SCc3cc(=O)c4ccccc4[nH]3)s2)cc1 | inconclusive: 19 µM [inhibitor, partial curve] |  |
| Cc1[nH][nH]c(=O)c1C(c1ccc(-c2ccc(Cl)cc2Cl)o1)c1c(C)[nH][nH]c1=O | inconclusive: 37.9 µM [inhibitor, partial curve, poor fit] |  |
| O=C(Nc1ccc(Cl)cc1)N1CCSCC1 | inconclusive: 23.9 µM [inhibitor, single point] |  |
| CCOc1ccc(CNS(=O)(=O)c2cc3c(cc2C)NC(=O)CO3)cc1OC |  | inactive: -2.79% |
| CN(C)C(=S)SCC(=O)NCc1ccc(F)cc1 | inconclusive: 37.9 µM [inhibitor, partial curve, poor fit] |  |
| C(=N\N=C\c1cccnc1)/c1cccnc1 | inconclusive: 23.9 µM [inhibitor, partial curve] |  |
| COc1cccc(/C=C2\Oc3ccc(O)cc3C2=O)c1O | active: 3.38 µM |  |
| Cc1c(C(=O)NCC2CCCO2)oc2ccccc12 (stereo not given) | inconclusive: 15.1 µM [inhibitor, partial curve] |  |
| CCc1ccc(NC(=O)C(=S)NC2CCCCC2)cc1 | active: 3.01 µM |  |
| c1ccc(-c2ccc(OCCN3CCOCC3)cc2)cc1 | active: 16.9 µM |  |

| Compound | Potency | activity change, negative = inhibition |
| --- | --- | --- |
| O=S(=O)(Nc1nc2ccccc2nc1Nc1ccc2c(c1)OCCO2)c1cccs1 | inconclusive: 21.3 µM [inhibitor, single point] |  |
| O=C1CN(C(=S)NC(=O)c2ccc(-c3ccccc3)cc2)CCN1 | inconclusive: 37.9 µM [inhibitor, single point] |  |
| Cc1ccccc1-c1nnc(SCc2ccccc2)o1 | active: 8.49 µM |  |
| COc1ccc(-c2nc3ccc(N4CCCC4)cc3c(=O)[nH]2)cc1OC | inconclusive: 8.49 µM [inhibitor, partial curve, poor fit] |  |
| Cc1ccc(NC(=O)NCCc2c(C)nn(C)c2C)cc1Cl |  | inactive: -10.1% |
| Cc1ccc(OCc2nnc(NC(=O)c3cccnc3)s2)cc1 | inconclusive: 26.9 µM [inhibitor, partial curve, poor fit] |  |
| COc1ccc(C2=NN(CC(=O)NCCc3ccc(OC)c(OC)c3)C(=O)CC2)cc1 |  | inactive: -0.616% |
| Cc1cc2n(n1)C(c1cc(C(C)(C)C)c(O)cc1O)Nc1ccccc1-2 (stereo not given) |  | inactive: -15.3% |
| O=C(NCCc1csc(-c2ccccc2)n1)c1c(F)cccc1F | inconclusive: 42.6 µM [inhibitor, partial curve, poor fit] |  |
| O=C(c1ccc(N2CCN(CCO)CC2)nc1)N1CCOCC1 |  | inactive: -0.59% |
| O=C(O)c1[nH]c2ccccc2c1C=NCc1ccccc1Cl |  | inactive: -15.4% |
| Cc1ccc(-c2nc3sc(CCNC(=O)c4ccc(Br)o4)c(C)n3n2)cc1 | active: 10.7 µM |  |
| N#CCC(=O)c1sccc1-n1cccc1 | inconclusive: 26.9 µM [inhibitor, partial curve, poor fit] |  |
| COc1ccc(Cc2nnc(NS(=O)(=O)c3ccc(Cl)cc3)s2)cc1OC | inconclusive: 37.9 µM [inhibitor, partial curve, poor fit] |  |
| Nc1nccc(/C=C/c2c(Cl)cccc2Cl)n1 | inconclusive: 21.3 µM [inhibitor, single point] |  |
| Cc1c(C)c2ccc(OCc3ccc(C(=O)O)o3)c(C)c2oc1=O | active: 10.7 µM |  |
| CCOc1ccc(Br)cc1S(=O)(=O)Nc1cccc(S(=O)(=O)N(C)C)c1 | inconclusive: 9.53 µM [inhibitor, partial curve, poor fit] |  |
| CCOC(=O)C1(CCc2ccccc2)CCN(C(=O)Cc2nonc2C)CC1 | active: 19 µM |  |
| CCOC(=O)CNC(=O)c1ccc(C)cc1 | active: 13.5 µM |  |
| COc1ccc(-c2noc(COc3ccc4c(c3)OCO4)n2)cc1OC | inconclusive: 37.9 µM [inhibitor, partial curve, poor fit] |  |
| COC(=O)c1c(-c2cccs2)csc1NC(=O)COc1ccc(C(C)(C)C)cc1 | inconclusive: 12 µM [inhibitor, partial curve, poor fit] |  |
| Cc1ccc(CNC(=O)Cn2ccc3cc(S(=O)(=O)N4CCCCCC4)ccc32)cc1 | inconclusive: 37.9 µM [inhibitor, partial curve, poor fit] |  |
| CC(=O)c1cccc(-n2nnnc2SCC(=O)Nc2cccc(NC(=O)c3ccco3)c2)c1 | inconclusive: 16.9 µM [inhibitor, partial curve] |  |
| CC(=O)c1cccc(NC(=O)NNC(=O)c2ccc(-c3ccccc3)cc2)c1 |  | inactive: 7.5% |
| C/C(NC(=O)c1cccc(F)c1)=C1/C(=O)C[C@@H]2[C@H]1C2(C)C | active: 10.7 µM |  |
